Experimental data from the supplement of paper PMC11060735.
Structures can show the parent of a compound that is named as a salt. Screen size: about 1,800 compounds; about 50 (3%) showed activity. The list shows a part of the results.
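Also: fibroblasts sorted 14 days after bleomycin, GFP+ and GFP− mixed 1:1 in 384-well plates (GFP− as in-well control), imaged after Hoechst and NucView530 staining, reference wells lacked compound.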

The molecules below were run on mouse p16Ink4a+/- lung fibroblasts (INKBRITE, bleomycin-injured) (assay: percentage of GFP+ (p16Ink4a+) fibroblasts among all cells in well; higher = less depletion of p16Ink4a+ cells, active = 20 or less). Conditions: 1 µM; 3 days.
For `Cc1cccc(-c2[nH]ncc2-c2ccc3ncccc3n2)n1`, the “percentage of GFP+” value was inactive: 42.3%. In the case of `CN[C@@H](C)C(=O)N[C@H](C(=O)N1CCC[C@H]1C(=O)Nc1snnc1-c1ccccc1)C1CCCCC1`, the “percentage of GFP+” value is reported as inactive: 21.9%. With `COC(=O)CCSCc1ccc(-c2onc(C)c2NC(=O)OC(C)c2ccccc2Cl)cc1` (centres undefined) the “percentage of GFP+” value was inactive: 43.9%. In the case of `CCCCNc1ccc(C(=O)OCCN(C)C)cc1` [Tetracaine], the “percentage of GFP+” value is reported as inactive: 34.1%. For `CC(=O)O[C@H]1C[C@@H]2CC[C@@H]3[C@H](CC[C@@]4(C)[C@H]3C[C@H]([N+]3(C)CCCCC3)[C@@H]4OC(C)=O)[C@@]2(C)C[C@@H]1N1CCCCC1` [Vecuronium], the “percentage of GFP+” value was inactive: 47%. In the case of `CNCc1ccc(C)c(NC(=O)c2ccc(Nc3nc(-c4ccccc4)c4ccccc4n3)cc2)c1`, the “percentage of GFP+” value is reported as inactive: 47.4%. For `C#C[C@]1(O)CC[C@H]2[C@@H]3CCC4=CC(=O)CC[C@@H]4[C@H]3CC[C@@]21CC` [Levonorgestrel], the “percentage of GFP+” value was inactive: 39.7%. In the case of `COc1cc(/C=C/C(=O)N2CCN(CC(=O)N3CCCC3)CC2)cc(OC)c1OC` [Cinepazide maleate], the “percentage of GFP+” value is reported as inactive: 45.4%. In the case of `COc1cccc2c1C(=O)c1c(O)c3c(c(O)c1C2=O)C[C@@](O)(C(=O)CO)C[C@@H]3O[C@H]1C[C@H](N)[C@H](O[C@@H]2CCCCO2)[C@H](C)O1` [Pirarubicin], the “percentage of GFP+” value is reported as inactive: 24%. `CC(C)c1nc(N(C)S(C)(=O)=O)nc(-c2ccc(F)cc2)c1/C=C/[C@@H](O)C[C@@H](O)CC(=O)O` [Rosuvastatin, Rosuvastatin Calcium] was tested, and the “percentage of GFP+” value was inactive: 41.7%. With `NC(=O)c1cnc(N[C@@H]2CCCC[C@H]2N)nc1Nc1cccc(-n2nccn2)c1` the “percentage of GFP+” value was inactive: 49.5%. `O=C(Nc1cccc(Nc2ncc(Br)c(NCCc3c[nH]cn3)n2)c1)N1CCCC1` was tested, and the “percentage of GFP+” value was inactive: 38.5%. With `CC(C)(Sc1cc(C(C)(C)C)c(O)c(C(C)(C)C)c1)Sc1cc(C(C)(C)C)c(O)c(C(C)(C)C)c1` [Probucol] the “percentage of GFP+” value was inactive: 36.9%. For `CCCNC(C)C(=O)Nc1c(C)csc1C(=O)OC` (centres undefined) [Articaine], the “percentage of GFP+” value was inactive: 49.4%. With `CN(C)CCC(c1ccccc1)c1ccccn1` (centres undefined) [Pheniramine] the “percentage of GFP+” value was inactive: 49.3%. `C[N+]1(C)[C@@H]2C[C@@H](OC(=O)C(O)(c3cccs3)c3cccs3)C[C@H]1[C@@H]1O[C@@H]12` [Tiotropium] was tested, and the “percentage of GFP+” value was inactive: 38.9%. For `COc1ccc2cc1Oc1ccc(cc1)C[C@H]1c3cc(c(OC)cc3CCN1C)Oc1c(OC)c(OC)cc3c1[C@H](C2)N(C)CC3` [Tetrandrine], the “percentage of GFP+” value was inactive: 44.8%. `Cc1ccc2nc(NCCN)c3ncc(C)n3c2c1` was tested, and the “percentage of GFP+” value was inactive: 42.3%. For `CCc1cc2c(cc1N1CCC(N3CCOCC3)CC1)C(C)(C)c1[nH]c3cc(C#N)ccc3c1C2=O` [Alectinib], the “percentage of GFP+” value was inactive: 39.9%. In the case of `COc1cc(Nc2nc3ccccc3nc2NS(=O)(=O)c2ccc(NC(=O)c3ccc(C)c(OC)c3)cc2)cc(OC)c1`, the “percentage of GFP+” value is reported as inactive: 37.4%. With `Nc1ccc(C(=O)NCC(=O)O)cc1` [Aminohippuric Acid] the “percentage of GFP+” value was inactive: 42.9%. `NS(=O)(=O)Cc1noc2ccccc12` [Zonisamide] was tested, and the “percentage of GFP+” value was inactive: 27.5%. In the case of `COc1cc2c(cc1Cc1cccc(Cl)c1F)c(=O)c(C(=O)O)cn2[C@H](CO)C(C)C` [Elvitegravir], the “percentage of GFP+” value is reported as inactive: 26.3%. With `Cc1cnc(Nc2ccc(OCCN3CCCC3)cc2)nc1Nc1cccc(S(=O)(=O)NC(C)(C)C)c1` the “percentage of GFP+” value was inactive: 40.9%. `C[C@@H](O)[C@H]1C(=O)N2C(C(=O)O)=C(S[C@@H]3CN[C@H](CNS(N)(=O)=O)C3)[C@H](C)[C@H]12` [Doripenem] was tested, and the “percentage of GFP+” value was inactive: 39.8%. With `Cn1cnc(N)c2ncnc1-2` [3-Methyladenine] the “percentage of GFP+” value was inactive: 45.9%. With `C=CCNC(N)=S` [Allylthiourea] the “percentage of GFP+” value was inactive: 35%. `Cc1ccc(C)c(OCCCC(C)(C)C(=O)O)c1` [Gemfibrozil] was tested, and the “percentage of GFP+” value was inactive: 46.1%. `O=C(O)C[C@H](O)C[C@H](O)/C=C/c1c(C2CC2)nc2ccccc2c1-c1ccc(F)cc1` [Pitavastatin Calcium] was tested, and the “percentage of GFP+” value was inactive: 22.1%. In the case of `CO/C(O)=C1\C(C)=NC(C)=C(C(=O)O[C@@H]2CCCN(Cc3ccccc3)C2)[C@@H]1c1cccc([N+](=O)[O-])c1` [Benidipine], the “percentage of GFP+” value is reported as inactive: 41.8%. With `Cn1c([N+](=O)[O-])cnc1COC(N)=O` [Ronidazole] the “percentage of GFP+” value was inactive: 49.8%. `C[C@]12C=CC(=O)C=C1CC[C@H]1[C@@H]3C[C@@H](O)[C@](O)(C(=O)CO)[C@@]3(C)C[C@H](O)[C@@]12F` [Triamcinolone] was tested, and the “percentage of GFP+” value was inactive: 32%. `NCC(=O)CCC(=O)O` [Aminolevulinic acid] was tested, and the “percentage of GFP+” value was inactive: 40.8%. In the case of `CCN1CCN(c2ccc(Nc3cc(N(C)C(=O)Nc4c(Cl)c(OC)cc(OC)c4Cl)ncn3)cc2)CC1`, the “percentage of GFP+” value is reported as inactive: 32.4%. In the case of `NCCS` [Cysteamine], the “percentage of GFP+” value is reported as inactive: 52.9%. For `COC(=O)CCc1ccc(OCC(O)CNC(C)C)cc1` (centres undefined) [Esmolol, Esmolol Hydrochloride], the “percentage of GFP+” value was inactive: 48.2%. In the case of `[K]` [Potassium Iodide], the “percentage of GFP+” value is reported as inactive: 53.2%. `NC(=O)N1c2ccccc2CC(=O)c2ccccc21` [Oxcarbazepine, Trileptal] was tested, and the “percentage of GFP+” value was inactive: 46.9%. For `O=C(c1cc(Cc2nnc(O)c3ccccc23)ccc1F)N1CCN(C(=O)C2CC2)CC1` [Olaparib], the “percentage of GFP+” value was inactive: 42.4%. For `COC(=O)C1=CO[C@@H](O)[C@@H]2C(CO)=CC[C@H]12` [Genipin], the “percentage of GFP+” value was inactive: 38.5%. With `CCC(C)n1ncn(-c2ccc(N3CCN(c4ccc(OC[C@H]5CO[C@](Cn6cncn6)(c6ccc(Cl)cc6Cl)O5)cc4)CC3)cc2)c1=O` (some centres undefined) [Itraconazole] the “percentage of GFP+” value was inactive: 37.9%. With `CCOC(=O)[C@H](CCc1ccccc1)N[C@@H](C)C(=O)N1Cc2ccccc2C[C@H]1C(=O)O` [Quinapril] the “percentage of GFP+” value was inactive: 41.2%. In the case of `Nc1nc(O)c2[nH]nnc2n1` [8-azaguanine], the “percentage of GFP+” value is reported as inactive: 49.2%. `C[C@H]1[C@H](O)O[C@@H]2O[C@@]3(C)CC[C@H]4[C@H](C)CC[C@@H]1[C@@]24OO3` [Dihydroartemisinin (DHA)] was tested, and the “percentage of GFP+” value was inactive: 32.4%.
